± gives the standard deviation of the averaged measurements. The list shows a part of the results.
test system: PfAP2-G AP2 domain (GST-tagged); assay: gcPBM binding intensity (ln(normalized median fluorescence intensity)); higher = stronger DNA binding
Procedure, shortened: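 Binding intensity is defined as the maximum Masliner-normalised natural-log median intensity across replicate spots for either probe orientation. It was measured on an Agilent 4 × 180k array of primer-extended double-stranded 36-bp intergenic genomic probes and negative controls, to which GST-tagged P. falciparum DNA-binding domains made in E. coli were applied for 1 h in 1× PBS with 1% milk, 0.2 mg/ml BSA, 0.5% salmon testes DNA and 0.03% Triton X-100. Detection was by Alexa488 anti-GST antibody and scanning at 488 nm.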

Sequence	gcPBM binding intensity (ln)
CTATTTCAGAAACACACACACACAAACAAACATATA [CACACA_site978]	10.2 ± 0.31
CAAGAAATTTACAAACGTACATATGTTCATACAAGG [XGTACX_site2372]	11.2 ± 0.48
TTAGAGAAACAAAATTGTACATTATAAATTTGCCTT [XGTACX_site440]	10.7 ± 0.34
TATTTGAAAGCCAATTGTACTTTAGTTTTTGAAACA [XGTACX_site5542]	11.1 ± 0.9
TTAAATATAATATTATGTACTAAATATTTTTTTATT [XGTACX_site6121]	11.1 ± 0.75
TTTCTTTTTAAATAGGTGCATATTTTTATAAATATA	10.1 ± 0.38
ATAAATTTCCTCGTTTTTTTTTTTTTTTTTTTTTTT [CACACA_negctrl_site1173]	11.1 ± 0.58
AAAAATATTTATAACACACACATAATATTTATATAT [CACACA_site7238]	10.05 ± 0.028
TTTATATATATTCTCACACACTTTTTATTTTAACAA [CACACA_site4534]	10 ± 0.11
ATCTGTCGACAGGACAGTACACAGTAGCCAGGAAAT [XGTACX_site1994]	11.1 ± 0.67
ATATAAAAATGTAAGGGTACATAATAAATAATCAAA [XGTACX_site5217]	11.2 ± 0.67
ATTTAGAAAAATAAAACACACATATATATGTAAATA [CACACA_site4113]	9.845 ± 0.078
TATATATATATATATATATATATGTATGTGCATTTA [TGCATGCA_negctrl_site53]	9.85 ± 0.38
TTTTTGTTATTTTTAGTGCACATTTAAGGGTGTATT	10.6 ± 0.51
GGAAAAAATATATGCACACCCCCCAAAAAAAAAAAA [CACACA_site2222]	11.3 ± 0.85
AAAAAATATTAATATAGTACTTTATATTTATAAGTA [XGTACX_site6895]	10.9 ± 0.62
AATACGGCAAACATTAAAAAATATAATAACAATAAA [CACACA_negctrl_site868]	9.91 ± 0.042
GAAGGAAAAACAGAATGTACATAAATAAACGTATAT [XGTACX_site753]	11 ± 0.38
ACAAAATTTACAAAATGTACAAAATTTACAAAATGT [XGTACX_site6464]	10.6 ± 0.3

Sequence	gcPBM binding intensity (ln)
TATATCTTACTTTTTGCACACACTAATATTATTGTT [CACACA_site1640]	10.1 ± 0.13
AAACAAAAAAGAAACACACACTAATTAAATTTTCTT [CACACA_site4746]	9.77 ± 0.16
ATAATTAAAAAAGGAATATATATATATATATATATA [GTGCAC_negctrl_site343]	9.81 ± 0.45
CGTATGACATAATATTGTACTTTTGATATACATCAT [XGTACX_site7366]	11.2 ± 0.83
TTTAATAATATTTAGGTGCTATATATTATATGTATA	9.69 ± 0.042
TAAATTAATAAAAAGTGTACATAATATACATATATA [XGTACX_site8604]	11.3 ± 0.66
TACAATACCGTACAGGTGCAACTAGCCAAAAAAAAG	11.1 ± 0.87
ATAAATCATAAGGAGAGTACATAAATAAAATAATCA [XGTACX_site8825]	11.2 ± 0.71
ACAACATGCACACGCACACACAAAAAAAGCATGCAT [CACACA_site6185]	10.3 ± 0.3
ATGCTTATTATTTATTGTACTGAATAAATATATCTG [XGTACX_site4483]	11 ± 0.65
TATAAAAAATATAATTGTACATAAAGGTTAAAATGT [XGTACX_site6138]	11 ± 0.54
TTATTTCTACCTTTTTGTACACATTATTATGAAACC [XGTACX_site5325]	11.3 ± 0.81
CTCAATATATTTGATTTACACACTTACAATGTATAT [CACACA_site8982]	10.04 ± 0.078
AAGTGGCATATAAGTAAAAAATATATACAAGTATAT [GTGCAC_negctrl_site427]	9.915 ± 0.021
TATTAAAGATACTCGGTATAAATAAATTTTAATGTG [XGTACX_negctrl_site239]	10.5 ± 0.47
ATATAAAATAGACACGCACACAAAAAAAAAAAAAAA [CACACA_site3522]	10.2 ± 0.64
CTATAATATAGGTATACACACATATTATAGAATATT [CACACA_site7696]	9.915 ± 0.049
TATGTCAAAAAATAATGTACAAAAAAATTAACATAA [XGTACX_site5463]	10.8 ± 0.4
TATATATGGAAAAGGTGTACATTCAATATATATATA [XGTACX_site3167]	11.4 ± 0.82

Sequence	gcPBM binding intensity (ln)
TTTATTTTGTAGTGTACACATATATATATATATATA [CACACA_site5843]	11.7 ± 0.96
AAAATATTATTTTGTTGTACATATAAAATTTTAAGC [XGTACX_site1866]	11.4 ± 0.86
TACAAAATAAGACATGCATGTTATACATATATATTT [TGCATGCA_site321]	9.89 ± 0.071
TATATTTTTTTTCTAGTGCATATTATTAATTAAGTT	10.04 ± 0.049
TGAGTATTTTTTTAATGTACTTATATTAAAAGGAAA [XGTACX_site6286]	11.2 ± 0.9
AATATAAATTAATTTACACACTAAAAAATATTTATA [CACACA_site7728]	10.01 ± 0.021
ACATACTTTAATATATGTACATAAGAAAAAAAAAAA [XGTACX_site2991]	11.5 ± 0.74
TATACTAAAAAATACACATGCACATACAATATATAT [TGCATGCA_site1016]	10 ± 0.13
TATAAGAATGACAAGTGTACATATCAAATATATTAG [XGTACX_site7113]	11.3 ± 0.83
TATTTTTTATATTTATTTATTTAAAGGAGCTTTTCT [GTGCAC_negctrl_site293]	9.585 ± 0.092
TTTCTTTTTTTTTAATGTACTTTTTTTATAAAAGGT [XGTACX_site5688]	11.5 ± 0.97
TTTTTTCTTAAAATTTGTACATAGTGCAATTTTTTT [XGTACX_site5509]	10.6 ± 0.45
TCCTCTTCAATATATATATATTATAAATAAATAAAT [CACACA_negctrl_site1756]	9.91 ± 0.38
ATTATTACACAACGTTGTACATTTCAATATTTTTAT [XGTACX_site5096]	11.1 ± 0.61
AAAATAATATATAATTGTACTTTTTTTTTATATATA [XGTACX_site6093]	11.3 ± 0.86
TTTTTTTATAGCTAAACACACATAAGAATATATGTT [CACACA_site1099]	9.73 ± 0.13
TGTACATATATATATATAATAATAGTTATGTTTATT [CACACA_negctrl_site1474]	10.4 ± 0.35
TATTAACACTTTATAGAAACAAAAAAATAAGCAAAA [XGTACX_negctrl_site295]	9.9 ± 0.071
TTTGAATTTTTTAACACACACATGTGTGGATATATA [CACACA_site6872]	10.2 ± 0.33
